Assay results as given in the supplement of paper PMC9446081.
In all, about 39,000 compounds went through this assay and about 220 (0.56%) showed activity. Some of the results follow.

test system: Escherichia coli K-12 BW25113; assay: relative growth (OD600 normalised to plate interquartile mean) (fraction); higher = less growth inhibition, active = 0.2 or less; conditions: 50 µM; LB; incubation time: overnight (16-24 h)
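Also: static incubation at 37 °C against the wild-type strain, values averaged over two biological replicates.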

Row | Compound | relative growth
1 | CC(C)C#Cc1cnc2c(c1)C(=O)N([C@H](C)CO)C[C@@H](C)[C@@H](CN(C)C(=O)c1ccc3c(c1)OCO3)O2 | inactive: 0.996
2 | O=C(CN1CCOCC1)N[C@@H]1CC[C@H](CCNC(=O)C2CCCCC2)O[C@H]1CO | inactive: 1
3 | O=c1ccn([C@@H]2O[C@H](COP(=O)(O)OP(=O)(O)OP(=O)(O)O)[C@@H](O)[C@H]2O)c(=O)[nH]1 | inactive: 0.988
4 | C[C@H](CO)N1C[C@H](C)[C@H](CN(C)Cc2ccc(Cl)c(Cl)c2)Oc2c(NC(=O)c3nc4ccccc4s3)cccc2C1=O | inactive: 1
5 | Cc1ccc(C(=O)C(C)CN2CCCCC2)cc1.Cl (configuration not stated) | inactive: 0.99
6 | C[C@H]1CN([C@@H](C)CO)C(=O)CCCn2cc(nn2)CO[C@H]1CN(C)S(=O)(=O)c1ccc2c(c1)OCCCO2 | inactive: 0.975
7 | C[C@@H]1CN([C@H](C)CO)C(=O)c2cc(NC(=O)c3ccccc3)ccc2O[C@@H](C)CCCCO[C@@H]1CN(C)Cc1ccc(C(F)(F)F)cc1 | inactive: 1.04
8 | CCCNC(=O)N1C[C@@H](C)[C@H](OC)CN(C)C(=O)c2cc(NS(=O)(=O)CC(F)(F)F)ccc2OC[C@@H]1C | inactive: 0.989
9 | C[C@@H]1CN([C@H](C)CO)C(=O)c2cc(NC(=O)Nc3ccc(C(F)(F)F)cc3)ccc2O[C@@H](C)CCCCO[C@H]1CN(C)S(=O)(=O)c1ccc(Cl)cc1 | inactive: 1.03
10 | Cc1noc(C)c1NC(=O)N(C)C[C@@H]1Oc2c(NS(=O)(=O)c3ccccc3)cccc2C(=O)N([C@@H](C)CO)C[C@@H]1C | inactive: 1
11 | C[C@H](CO)N1C[C@H](C)[C@H](CN(C)C)Oc2cc(C#C[C@@H](C)O)ccc2S1(=O)=O | inactive: 0.994
12 | C[C@@H](NC(=O)N(C)C[C@@H]1OCc2ccccc2-c2c(n(C)c3ccccc23)C(=O)N([C@@H](C)CO)C[C@@H]1C)c1ccccc1 | inactive: 1
13 | O=C(C[C@@H]1C=C[C@H](NC(=O)Nc2ccc3c(c2)OCO3)[C@@H](CO)O1)NCCCN1CCOCC1 | inactive: 0.934
14 | C[C@]12C=C[C@]3(CN(C4CC4)C(=O)C3[C@@H]1C(=O)O)O2 (some centres not stated) | inactive: 0.998
15 | CO[C@@H](CN(C)C(=O)c1ccc2c(c1)OCO2)[C@H](C)CN([C@H](C)CO)S(=O)(=O)c1ccc(C)cc1 | inactive: 1.02
16 | C[C@@H]1CN([C@@H](C)CO)C(=O)c2cc(NS(=O)(=O)c3ccccc3)ccc2O[C@@H](C)CCCCO[C@@H]1CN(C)Cc1ccccc1 | inactive: 0.992
17 | C[C@H](CO)N1C[C@H](C)[C@@H](CN(C)Cc2cccc(C(=O)O)c2)Oc2ncc(C#CCN(C)C)cc2C1=O | inactive: 0.986
18 | CO[C@H]1O[C@H](CO)[C@@H](OC(=O)Nc2ccccc2-c2ccccc2)[C@H](OC(=O)Nc2ccccc2)[C@@H]1OC(=O)Nc1ccccc1 | inactive: 1.03
19 | C[C@@H]1CCCCO[C@@H](CN(C)C(=O)Nc2ccc(F)cc2)[C@H](C)CN([C@@H](C)CO)C(=O)c2cc(NS(=O)(=O)c3cccs3)ccc2O1 | inactive: 1.02

Row | Compound | relative growth
20 | C[C@@H]1CN([C@@H](C)CO)C(=O)c2cc(NC(=O)Nc3ccc4c(c3)OCO4)ccc2O[C@@H]1CN(C)S(C)(=O)=O | inactive: 0.924
21 | C[C@@H]1CCCCO[C@H](CN(C)S(=O)(=O)c2cn(C)cn2)[C@H](C)CN([C@H](C)CO)C(=O)c2cc(N(C)C)ccc2O1 | inactive: 1
22 | Cc1noc(C)c1NC(=O)N(C)C[C@H]1Oc2c(NC(=O)Nc3ccc(C(F)(F)F)cc3)cccc2C(=O)N([C@H](C)CO)C[C@H]1C | inactive: 0.97
23 | C[C@H]1CCCCO[C@@H](CN(C)Cc2ccc3c(c2)OCO3)[C@@H](C)CN([C@@H](C)CO)C(=O)c2cc(NC(=O)c3ccccc3)ccc2O1 | inactive: 0.983
24 | CC(C)NC(=O)N(C)C[C@@H]1Oc2c(NC(=O)C3CCCCC3)cccc2C(=O)N([C@H](C)CO)C[C@@H]1C | inactive: 0.986
25 | CC(C)NC(=O)Nc1cccc2c1O[C@H](CN(C)S(=O)(=O)c1ccc(Cl)cc1)[C@@H](C)CN([C@@H](C)CO)C2=O | inactive: 1.01
26 | C[C@H](CO)N1C[C@H](C)[C@H](CN(C)C(=O)Nc2ccc(F)cc2)OCCCC[C@H](C)Oc2ccc(NS(=O)(=O)c3cccs3)cc2C1=O | inactive: 1.01
27 | C[C@H](CO)N1C[C@H](C)[C@@H](CN(C)C(=O)Nc2ccccc2)Oc2ccc(NC(=O)C3CC3)cc2CC1=O | inactive: 1.01
28 | COc1ccc(CN(C)C[C@H]2OCCCC[C@@H](C)Oc3ccc(NC(=O)Nc4ccc(F)cc4)cc3C(=O)N([C@@H](C)CO)C[C@@H]2C)cc1 | inactive: 0.988
29 | COc1cccc(OC)c1NC(=O)N1[C@@H]2CC[C@@H](C2)[C@H]1c1nc2cccc(OCc3ccc(F)cc3)c2[nH]1 | inactive: 0.987
30 | O=S(=O)(O)c1ccc2c(c1)cc(S(=O)(=O)O)c1nn(-c3ccc(/C=C/c4ccc(-n5nc6c(S(=O)(=O)O)cc7cc(S(=O)(=O)O)ccc7c6n5)cc4S(=O)(=O)O)c(S(=O)(=O)O)c3)nc12 | inactive: 1.03
31 | NC(=O)CSc1nc(N)cc(N)n1 | inactive: 0.985
32 | CCS(=O)(=O)Nc1ccc2c(c1)C(=O)N(C)[C@@H]1CC[C@@H](CC(=O)NCCOC)O[C@@H]1CO2 | inactive: 0.999
33 | C[C@H]1CN([C@@H](C)CO)C(=O)c2ccccc2-c2ccccc2CO[C@H]1CN(C)Cc1ccc(C(F)(F)F)cc1 | inactive: 1
34 | C[C@@H]1CN([C@@H](C)CO)C(=O)Cc2cc(NS(=O)(=O)c3ccccc3)ccc2O[C@H]1CN(C)Cc1ccc(Cl)c(Cl)c1 | inactive: 1.04
35 | Cc1ccc(S(=O)(=O)Nc2ccc3c(c2)C(=O)N([C@@H](C)CO)C[C@H](C)[C@H](CN(C)S(=O)(=O)c2cccs2)O3)cc1 | inactive: 1.02
36 | Cc1ccc(S(=O)(=O)N(C)C[C@H]2OCCCC[C@@H](C)Oc3ccc(NC(=O)NC4CCCCC4)cc3C(=O)N([C@@H](C)CO)C[C@H]2C)cc1 | inactive: 1.01
37 | Cc1noc(C)c1NC(=O)N(C)C[C@H]1OCCCC[C@H](C)Oc2ccc(NS(=O)(=O)c3ccc(Cl)cc3)cc2C(=O)N([C@@H](C)CO)C[C@H]1C | inactive: 0.979
